According to the supplement of paper PMC12217912:
This is one part of the list. The full chains were built here from the parent and the listed change. Values near 0.05 are background.

B1: TEV protease; numbered along this chain (parent)
chain: MGESLFKGPRDYNPISSSICHLTNESDGHTTSLYGIGFGPFIITNKHLFRRNNGTLVVQSLHGVFKVKDTTTLQQHLVDGRDMIIIRMPKDFPPFPQKLKFREPQREERICLVTTNFQTKSMSSMVSDTSCTFPSGDGIFWKHWIQTKDGQCGSPLVSTRDGFIVGIHSASNFTNTNNYFTSVPKNFMELLTNQEAQQWVSGWRLNADSVLWGGHKVFMVKPEEPFQPVKEATQL

Variants of: B1
Assay: raw area under fraction-flipped curve 0-4 h after induction (AUC4h, not background-subtracted), DNA-recorder readout of cleavage of the substrate (dimensionless); higher = more cleavage of the substrate by the protease variant
Settings: temperature: 34 °C; time window: 0-4 h after rhamnose induction
Method: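 In vivo DNA recorder in E. coli TOP10(DE3) ΔrhaA at 34 °C. Each TEVp single-site mutant (parent TEVp 0) is paired with a single-site variant of the 7-mer TEVs (canonical ENLYFQ|S). The substrate sits between flexible linkers in a Bxb1-sfGFP-TEVs-SsrA fusion, so cleavage stabilises Bxb1 and speeds flipping of a recombination array, read by NGS. The value is the raw area under the fraction-flipped curve over 0-4 h after rhamnose induction (AUC4h), with ≥20 reads per time point. It is not background-subtracted; inactive controls average about 0.047.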
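Note: Bxb1 expression induced with 0.2% (w/v) L-rhamnose at OD600 near 0.5, cultures sampled hourly, flipped fraction per protease–substrate barcode pair counted by paired-end Illumina sequencing.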

Row | Variant | area with substrate ECLYFQS | area with substrate EELYFQS | area with substrate EFLYFQS | area with substrate EHLYFQS | area with substrate EILYFQS | area with substrate EMLYFQS | area with substrate ESLYFQS | area with substrate ELLYFQS | area with substrate EPLYFQS | area with substrate ERLYFQS
1 | MGESLFKGPRDYNPISSSICHLTNESDGHTTSLYGIGFGPFIITNKHLFRRNNGTLVVQSLHGVFKVKDTTTLQQHLVDGRDMIIIRMPKDFPPFPQKLKFREPQREERICLVTTNFQTKSMSSMVSDTSCTFPSGDGIFWKHWIQTKDGQCGSPLVSTRDGFIVGIHSASMFTNTNNYFTSVPKNFMELLTNQEAQQWVSGWRLNADSVLWGGHKVFMVKPEEPFQPVKEATQL [N172M] | 0.151 | – | – | – | – | – | – | – | – | –
2 | MGESLFKGPRDYNPISSSICHLTNESDGHTTSLYGIGFGPFIITNKHLFRRNNGTLVVQSLHGVFKVKDTTTLQQHLVDGRDMIIIRMPKDFPPFPQKLKFREPQREERICLVTTNFQTKSMSSMVSDTSCTFPSGDGIFWKHWIQTKDGQCGSPLVSTRDGFIMGIHSASNFTNTNNYFTSVPKNFMELLTNQEAQQWVSGWRLNADSVLWGGHKVFMVKPEEPFQPVKEATQL [V165M] | 0.0744 | 0.0918 | 0.0456 | 0.0589 | 0.0739 | 0.109 | 0.0613 | – | – | –
3 | MGESTFKGPRDYNPISSSICHLTNESDGHTTSLYGIGFGPFIITNKHLFRRNNGTLVVQSLHGVFKVKDTTTLQQHLVDGRDMIIIRMPKDFPPFPQKLKFREPQREERICLVTTNFQTKSMSSMVSDTSCTFPSGDGIFWKHWIQTKDGQCGSPLVSTRDGFIVGIHSASNFTNTNNYFTSVPKNFMELLTNQEAQQWVSGWRLNADSVLWGGHKVFMVKPEEPFQPVKEATQL [L5T] | 0.11 | – | – | 0.0876 | – | 0.131 | 0.118 | 0.136 | 0.127 | 0.116
4 | MGESLFKGPRDYNPISSSICHLTNESDGHTTSLYGIGFGPFIITNKHLFRRNNGTLVVQSLHGVFKVKDTTTLQQHLVDGRDMIIIRMPKDFPPFPQKLKFREPQREERICLVTTNFQTKSMSSMVSDTSCTFPSGDGIFWKHWIQTKDGQCGSPLVSTRDGFIVGIHSASNFTNTNNYFTSVPKNFMELLTNQEAQQWVSGWRLNADSVLWGGHKLFMVKPEEPFQPVKEATQL [V217L] | 0.0997 | – | 0.112 | – | – | – | 0.0921 | – | – | –
5 | MGESLFKGPRDYNPISSSICHLTNESDGHTTSLYGIGFGPFIITNKHLFRRNNGTLVVQSLHGVFKVKDTTTLQQHLVDGRDMIIIRMPKDFPPFPQKLKFREPQREERICLVTTNFQTKSMSSMVSDTSCTFPSGDGIFWKHWIQTKDGQCGSPLVSTRDGFIVGIHSASNFGNTNNYFTSVPKNFMELLTNQEAQQWVSGWRLNADSVLWGGHKVFMVKPEEPFQPVKEATQL [T174G] | 0.0789 | 0.0896 | – | – | 0.0871 | – | 0.0748 | 0.0738 | 0.099 | 0.116
6 | MGESLFKGPRDYNPISSSICHLTNESDGHTTSLYGIGFGPFIITNKHLFRRNNGTLVVQSLHGVFKVKDTTTLQQHLVDGRDMIIIRMPKDFPPFPQKVKFREPQREERICLVTTNFQTKSMSSMVSDTSCTFPSGDGIFWKHWIQTKDGQCGSPLVSTRDGFIVGIHSASNFTNTNNYFTSVPKNFMELLTNQEAQQWVSGWRLNADSVLWGGHKVFMVKPEEPFQPVKEATQL [L99V] | 0.0776 | 0.103 | 0.0893 | – | 0.0881 | 0.111 | 0.0883 | 0.0724 | – | 0.0947
7 | MGESLFKGPRDYNPISSSICHLTNESDGHTTSLYGIGFGPFIITNKHLFRRNNGTLVVQSLHGVFKVKDTTTLQQHLVDGRDMIIIRMPKDFPPFPQKLKFREPQREERICLVTTNFQTKSMSSMVSDTSCTFPSGDGIFWKHWIQTKDGQCGDPLVSTRDGFIVGIHSASNFTNTNNYFTSVPKNFMELLTNQEAQQWVSGWRLNADSVLWGGHKVFMVKPEEPFQPVKEATQL [S154D] | 0.0775 | – | – | 0.074 | – | 0.04 | – | 0.0662 | – | –
8 | MGESLFKGPRDYNPISSSICHLTNESDGHTTSLYGIGFGPFIITNKHLFRRNNGTLVVQSLHGVFKVKDTTTLQQHLVDGVDMIIIRMPKDFPPFPQKLKFREPQREERICLVTTNFQTKSMSSMVSDTSCTFPSGDGIFWKHWIQTKDGQCGSPLVSTRDGFIVGIHSASNFTNTNNYFTSVPKNFMELLTNQEAQQWVSGWRLNADSVLWGGHKVFMVKPEEPFQPVKEATQL [R81V] | 0.0857 | – | – | – | 0.0742 | – | 0.103 | – | – | 0.0853
9 | MGESLFKGPRDYNPISSSICHLTNESDGHTTSLYGIGFGPFIITNKHLFRRNNGTLVVQSLHGVFKVKDTTTLQQHLVDGRDMIIIRMPKDKPPFPQKLKFREPQREERICLVTTNFQTKSMSSMVSDTSCTFPSGDGIFWKHWIQTKDGQCGSPLVSTRDGFIVGIHSASNFTNTNNYFTSVPKNFMELLTNQEAQQWVSGWRLNADSVLWGGHKVFMVKPEEPFQPVKEATQL [F92K] | 0.114 | – | – | – | – | 0.0859 | – | – | – | –
10 | MGESLFKGPRDYNPISSGICHLTNESDGHTTSLYGIGFGPFIITNKHLFRRNNGTLVVQSLHGVFKVKDTTTLQQHLVDGRDMIIIRMPKDFPPFPQKLKFREPQREERICLVTTNFQTKSMSSMVSDTSCTFPSGDGIFWKHWIQTKDGQCGSPLVSTRDGFIVGIHSASNFTNTNNYFTSVPKNFMELLTNQEAQQWVSGWRLNADSVLWGGHKVFMVKPEEPFQPVKEATQL [S18G] | 0.111 | – | – | 0.101 | 0.0863 | 0.0988 | 0.0907 | 0.0894 | – | 0.1
11 | MGESLFKGPRDYNPISSSICHLTNESDGHTTSLYGIGFGPFIITNKHLFRRNNGTLVVQSLHGVFKVKDTTTLQQHLVDGRDMIIIRMPKDFPPFPQKLKEREPQREERICLVTTNFQTKSMSSMVSDTSCTFPSGDGIFWKHWIQTKDGQCGSPLVSTRDGFIVGIHSASNFTNTNNYFTSVPKNFMELLTNQEAQQWVSGWRLNADSVLWGGHKVFMVKPEEPFQPVKEATQL [F101E] | 0.0479 | – | – | – | – | 0.0391 | 0.0502 | 0.0557 | 0.0462 | 0.0475

Same assay, conditions: temperature: 34 °C; time window: 0-4 h after rhamnose induction

Row | Variant | area with substrate EVLYFQS | area with substrate EWLYFQS | area with substrate EDLYFQS | area with substrate EGLYFQS | area with substrate EQLYFQS | area with substrate ETLYFQS | area with substrate EKLYFQS | area with substrate EYLYFQS
12 | MGESTFKGPRDYNPISSSICHLTNESDGHTTSLYGIGFGPFIITNKHLFRRNNGTLVVQSLHGVFKVKDTTTLQQHLVDGRDMIIIRMPKDFPPFPQKLKFREPQREERICLVTTNFQTKSMSSMVSDTSCTFPSGDGIFWKHWIQTKDGQCGSPLVSTRDGFIVGIHSASNFTNTNNYFTSVPKNFMELLTNQEAQQWVSGWRLNADSVLWGGHKVFMVKPEEPFQPVKEATQL [L5T] | 0.105 | 0.145 | – | – | – | – | – | –
13 | MGESLFKGPRDYNPISSSICHLTNESDGHTTSLYGIGFGPFIITNKHLFRRNNGTLVVQSLHGVFKVKDTTTLQQHLVDGRDMIIIRMPKDFPPFPQKLKFREPQREERICLVTTNFQTKSMSSMVSDTSCTFPSGDGIFWKHWIQTKDGQCGSPLVSTRDGFIVGIHSASNFTNTNNYFTSVPKNFMELLTNQEAQQWVSGWRLNADSVLWGGHKLFMVKPEEPFQPVKEATQL [V217L] | – | – | 0.0824 | – | – | – | – | –
14 | MGESLFKGPRDYNPISSSICHLTNESDGHTTSLYGIGFGPFIITNKHLFRRNNGTLVVQSLHGVFKVKDTTTLQQHLVDGRDMIIIRMPKDFPPFPQKLKFREPQREERICLVTTNFQTKSMSSMVSDTSCTFPSGDGIFWKHWIQTKDGQCGSPLVSTRDGFIVGIHSASNFGNTNNYFTSVPKNFMELLTNQEAQQWVSGWRLNADSVLWGGHKVFMVKPEEPFQPVKEATQL [T174G] | 0.0781 | 0.106 | – | 0.0799 | 0.0877 | 0.074 | – | –
15 | MGESLFKGPRDYNPISSSICHLTNESDGHTTSLYGIGFGPFIITNKHLFRRNNGTLVVQSLHGVFKVKDTTTLQQHLVDGRDMIIIRMPKDFPPFPQKVKFREPQREERICLVTTNFQTKSMSSMVSDTSCTFPSGDGIFWKHWIQTKDGQCGSPLVSTRDGFIVGIHSASNFTNTNNYFTSVPKNFMELLTNQEAQQWVSGWRLNADSVLWGGHKVFMVKPEEPFQPVKEATQL [L99V] | 0.105 | – | – | 0.0774 | – | 0.116 | 0.0966 | 0.105
16 | MGESLFKGPRDYNPISSSICHLTNESDGHTTSLYGIGFGPFIITNKHLFRRNNGTLVVQSLHGVFKVKDTTTLQQHLVDGRDMIIIRMPKDFPPFPQKLKFREPQREERICLVTTNFQTKSMSSMVSDTSCTFPSGDGIFWKHWIQTKDGQCGDPLVSTRDGFIVGIHSASNFTNTNNYFTSVPKNFMELLTNQEAQQWVSGWRLNADSVLWGGHKVFMVKPEEPFQPVKEATQL [S154D] | 0.0591 | – | – | – | 0.062 | – | – | –
17 | MGESLFKGPRDYNPISSSICHLTNESDGHTTSLYGIGFGPFIITNKHLFRRNNGTLVVQSLHGVFKVKDTTTLQQHLVDGVDMIIIRMPKDFPPFPQKLKFREPQREERICLVTTNFQTKSMSSMVSDTSCTFPSGDGIFWKHWIQTKDGQCGSPLVSTRDGFIVGIHSASNFTNTNNYFTSVPKNFMELLTNQEAQQWVSGWRLNADSVLWGGHKVFMVKPEEPFQPVKEATQL [R81V] | 0.105 | – | – | 0.079 | – | 0.144 | – | –
18 | MGESLFKGPRDYNPISSSICHLTNESDGHTTSLYGIGFGPFIITNKHLFRRNNGTLVVQSLHGVFKVKDTTTLQQHLVDGRDMIIIRMPKDKPPFPQKLKFREPQREERICLVTTNFQTKSMSSMVSDTSCTFPSGDGIFWKHWIQTKDGQCGSPLVSTRDGFIVGIHSASNFTNTNNYFTSVPKNFMELLTNQEAQQWVSGWRLNADSVLWGGHKVFMVKPEEPFQPVKEATQL [F92K] | – | – | 0.0882 | 0.0809 | – | – | – | –
19 | MGESLFKGPRDYNPISSGICHLTNESDGHTTSLYGIGFGPFIITNKHLFRRNNGTLVVQSLHGVFKVKDTTTLQQHLVDGRDMIIIRMPKDFPPFPQKLKFREPQREERICLVTTNFQTKSMSSMVSDTSCTFPSGDGIFWKHWIQTKDGQCGSPLVSTRDGFIVGIHSASNFTNTNNYFTSVPKNFMELLTNQEAQQWVSGWRLNADSVLWGGHKVFMVKPEEPFQPVKEATQL [S18G] | 0.0855 | – | – | 0.0785 | 0.0807 | – | 0.104 | –
20 | MGESLFKGPRDYNPISSSICHLTNESDGHTTSLYGIGFGPFIITNKHLFRRNNGTLVVQSLHGVFKVKDTTTLQQHLVDGRDMIIIRMPKDFPPFPQKLKEREPQREERICLVTTNFQTKSMSSMVSDTSCTFPSGDGIFWKHWIQTKDGQCGSPLVSTRDGFIVGIHSASNFTNTNNYFTSVPKNFMELLTNQEAQQWVSGWRLNADSVLWGGHKVFMVKPEEPFQPVKEATQL [F101E] | – | 0.0531 | 0.0622 | – | – | 0.0541 | – | –
